Data from the supplement of paper PMC12632987.
Over roughly 1,800 sequences, “median log2 fold change of GCK-ALFA target abundance (FLAG IP / Myc IP barcode read proportion)” has its median near 0.14; the lowest 2% begin near -0.84. This is one part of the list.

T1: TRAF2, Q12933
T1 chain: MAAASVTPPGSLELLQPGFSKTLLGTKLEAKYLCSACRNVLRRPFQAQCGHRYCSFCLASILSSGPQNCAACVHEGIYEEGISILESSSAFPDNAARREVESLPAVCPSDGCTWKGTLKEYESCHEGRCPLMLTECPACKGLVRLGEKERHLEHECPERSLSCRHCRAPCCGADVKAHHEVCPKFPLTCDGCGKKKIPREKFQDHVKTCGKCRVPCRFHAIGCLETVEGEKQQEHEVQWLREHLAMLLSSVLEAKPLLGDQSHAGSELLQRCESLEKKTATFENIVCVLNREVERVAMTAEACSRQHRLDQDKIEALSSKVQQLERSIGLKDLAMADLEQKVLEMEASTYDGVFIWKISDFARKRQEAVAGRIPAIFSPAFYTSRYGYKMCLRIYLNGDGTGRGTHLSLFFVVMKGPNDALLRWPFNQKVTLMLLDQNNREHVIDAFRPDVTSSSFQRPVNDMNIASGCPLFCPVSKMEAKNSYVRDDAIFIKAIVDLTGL

B1: traf2_out_17_178_1749 (protein)
chain: DKEELKKKINELNNEIADVADETMEKILALAEADPSVTPEALAAIRAAVKRGSANTAYALYMEASTDPAKKAEAEKIYAEARKKMNELADEMLKAIEEYK
B2: traf2_out_11_155_767 (protein)
chain: SKELEIWQELNDKVDAIVDEAYEKVKELILTDKSLTEEEKKELLDILETNRKYGLRTAFSKLIEKYKELGKEDLAKKVQEILDEAQKKMSKAAIEAEKKI
B3: traf2_out_16_62_1469 (protein)
chain: SEEKEELRKKADEKIDLAQELRDAVVAYLRGEDPEAALAKLEALAKKLGEEAKALVDALKAARADPEHREEHLAKAEELAVEIRNRLAKEALELEEKAKK
B4: traf2_out_9_17_2626 (protein)
chain: AEAEAYERETLLEAVREVTEKLLAKGYITEEQAEEIIEKTRELLEKGLPLEEVRNHVLADIASVLLWDSGLSVAEANKAVGEARKVLDAAIAEVEAARAA
B5: traf2_out_17_178_1717 (protein)
chain: SKEEYRKKISELTDKLIDLSERAARELLELAEREGTLSPEELAALREARRRGSPNDTLALGRRIAPKLRSREEAEALIRRFEEESRRLAKEIAEAYEKYE
B6: traf2_out_14_149_1250 (protein)
chain: SETEKRKEALKKAAELMKEIIEILEKALAAGSTEVDKEKLKKLLEEARKILKEQGFVLGHLLAMEEMLKTTKEWTLEDIEAFLEEARRARDSLEVLAEML
B7: traf2_out_18_147_1811 (protein)
chain: SWREAIDKMADLSEKIRELMKEIAKLTGEEEETKKLEDILTSTSVSLEEKEKAVEKAKKKYKAEGKEEAVKLLEEALELSKERLEAAKKANELINKEEAE
B8: traf2_out_17_162_1546 (protein)
chain: EELERRLRELEERLRRLEEEARRLREKLPDLPKLSKEELTDLLVEASEARREALELAEEIEELREEIGEERAEELRERARRIAEELQRIANAIYKEILKK
B9: traf2_out_11_131_658 (protein)
chain: MDAVATAESVAERVAARLALAETLSPEERHRLALQALDTIEAAAEYLREHVAEMSREDVERAVEILRAAVEAVLALDPSVAPEAEEVRRALEELERAARE
B10: traf2_out_15_48_1363 (protein)
chain: STAALQATARQVNDLFDATMREVAERLRELLPRVSPENRPLFERAIHLASVNGTIREVIALLEELAERVSPEVAAEVRELIERLRETRREASRLMSETLK
B11: traf2_out_11_169_812 (protein)
chain: EEKEKNRKINDFALELNDEAKKELLKHAKALAKKAGLDVAEVEAIFEKHKNSSLSAVAAALIAYFKSKGKEEEAAAVLAKYEELKEEINKKVTEKIKELE
B12: traf2_out_13_95_1207 (protein)
chain: EEEKTKKLREVTNEIADDLIDFVEELAEEIEKATGRAEYRDEILRTLRRYGVRAAIALIREYAKADPEHAAVYEKAAAEAEAKVREAGKEMAKKIKEIEE
B13: traf2_out_17_178_1707 (protein)
chain: TKEEARKRISEATDRMIDLAEAAAARLLALAEESGSLSPEELAALREARRLGSARTTLALMRRAIPRSPRAEEVRALVDEFEAEYRRLSAEIAAALEKYE
B14: traf2_out_17_162_1619 (protein)
chain: KSIEEILEELKRELEELEKKLKELEEKLKEIEKLSKEELTDLLVEASEARRRAREAIERIKELEGEIPEEVYEELKERFEELAERFQRIANIFYKKLEEL
B15: traf2_out_14_149_1255 (protein)
chain: SETEKKRKALEEARALMEEIAAILEAALAAGSTEVDRERLRALVEEARAILREQGFVLGHLLAIEEMLATTEEFTLADIEALLAEVRRAAESLAVLAEML
B16: traf2_out_18_3_1912 (protein)
chain: SEEERKKVSDEIDKLVDDATAKAREALARGKAEHPEFAAEFDRLEADLAAGAGPFGILEALAELFKKAGDEAAAAELEAFLAETRKKLQELVDEYEKLLK
B17: traf2_out_15_48_1370 (protein)
chain: DAAAYRAAAVAAADAIIATKDAVRDKVKELAKVASPEVKKKLDAVADLIDAGAGTRDIIAALKEAAKVASPELKKKLEALAAELEAARRAASATMAAMEK
B18: traf2_out_18_3_1936 (protein)
chain: KEEELKKVSEEIDKIVDEAEAKTREALAELKAEKPELAARAEELEALLDAGAGPFGILEAVAELYKEAGLEEKAKEIEEFLKEKRKEMQKLVDEYEKLRK
B19: traf2_out_16_104_1401 (protein)
chain: EAAKRAEFEAIIARLEAIAEELQKIANTLYKLYEKADPATRVALSDALVAASAARRAALAAAEEARRALETGGDLEAARAALAKAEADAAAVKATAAALA
B20: traf2_out_17_162_1586 (protein)
chain: AALEEELARIEEELERLEEELRRLEEKAKRIDELSKEELTDLLVEASEARRRARELLERVRRLRPRLDPETYERLATRAEELAERFQRLANIFYKELEKK
B21: traf2_out_11_169_816 (protein)
chain: EEQKKNREINDFALELNDKAKKELLEHAKKLAKEAGLDVAEVEAIFAKHKNSSLSAVAAALVEYFRSKGKEEEAAAVLAKYEELKEKINKEVTKKIKELE
B22: traf2_out_11_169_840 (protein)
chain: EEAEKNRKINDKALELNDKGKEELKKHALALAKAAGLDPAEIEKIFEENKGKSLSYIAGSLIAYFNSKGKADVAADILAKYEEIKDRINKEGTAFIKSLE
B23: traf2_out_11_155_751 (protein)
chain: EEKIKLLNEMNDKIMEIFDEARKKVDELLEKTAKEHPEHKEKIEKKKKETKNFSPKTYMLTMLELLKELGLEEEAKKVEEIIKETQKKASEIVIETEKKL
B24: traf2_out_11_169_858 (protein)
chain: EEKEFNRKLIDKALELNDKAKKELEEFALKLAKEAGLDVEEVKKIFEENKNKSLSALASALIKYFKSKGEEKNAQAILEKHEELKDKINKEMSAFIKELK
B25: traf2_out_11_155_690 (protein)
chain: TKERELNNELVDRNLAVGDALKAQIDAIAAAAAAAHPAHAAEIEKVAADAAKYSARTYAGIMAATFERLGLADEAAQVRALLAAAQAERNAILKEIEAKK
B26: traf2_out_17_162_1539 (protein)
chain: SPTEERLEELERRLERLEEELKKLKEKSEKLDELSKEEISDLLVEVSELRREALRLAEELRRLAEETGSPRARELEERAERLAEELQRIANKIYKELEKK
B27: traf2_out_1_27_1009 (protein)
chain: SDAEFRALLAEADRALGSLSPEEALAAAAEAVRRALELGIGEARHLAVVLILSQADDELAEALLEAIRAVLREAGVSEEEIAEIERRAESGRARLKKALA
B28: traf2_out_6_156_2406 (protein)
chain: MIEEIEKETLEEIKELLKKLAAASEEKKIAYISKIAGTFYRGLQKLREAGASVEELEEFGKRVLEKIKEWLEELGLDQDTKDLILSSLNAVYDVALEEAK
B29: traf2_out_13_95_1186 (protein)
chain: EEEKTKKLREETNKIADKLIDTTEELAKEIEKETGDPTYKERILSALNRYGVRAAIHLIKELAKENPEYKEIFEEAAEKLEAARREAGKEVAKIEKEIEE

Target: T1, TRAF2, Q12933
Experiment: median log2 fold change of GCK-ALFA target abundance (FLAG IP / Myc IP barcode read proportion) (log2 ratio); each designed protein is fused to an ALFA-tag nanobody in HEK293 cells to bring the named protein to FLAG-tagged glucokinase (GCK); Myc marks an untargeted standard; higher = target protein stabilised (more abundant)
Conditions: target protein: 3xFLAG-MCP-GCK-ALFA reporter; HEK293 landing pad (RPLP)
Outline: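 Sequencing of reverse-transcribed, amplified circular RNA barcodes from anti-FLAG and anti-Myc immunoprecipitates provided the readout for an ALFA-nanobody-fused binder library recombined into HEK293 landing-pad cells. Those cells were induced with 2 μg mL^−1 doxycycline, transfected with a plasmid expressing a FLAG-tagged target and a Myc-tagged standard, and lysed after 48 h. Target abundance is the per-binder median log2 ratio of FLAG to Myc barcode read proportions. Only barcodes at a proportion of ≥10^−7 in both replicates and binders with ≥3 barcodes per replicate were kept, with a 10^−6 pseudocount added before the two replicates were pooled.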

Binder | median log2 fold change
B1 | 0.0527
B2 | 0.206
B3 | 0.467
B4 | -0.0713
B5 | 0.274
B6 | 0.0577
B7 | 0.245
B8 | 0.213
B9 | 0.223
B10 | 0.187
B11 | 0.302
B12 | -0.0765
B13 | -0.126
B14 | 0.115
B15 | -0.105
B16 | 0.142
B17 | 0.205
B18 | 0.263
B19 | 0.184
B20 | 0.101
B21 | 0.614
B22 | 0.0869
B23 | 0.0172
B24 | -0.248
B25 | 0.0844
B26 | 0.204
B27 | 0.0103
B28 | 0.0253
B29 | 0.217
